Results: paper PMC9911399, “Two distinct binding modes provide the RNA-binding protein RbFox with extraordinary sequence specificity”
Where a chain is given by its changes, count along the chain named. The list shows a part of the results.

T1: RBFOX1 RRM (Homo sapiens, UniProt Q9NWB1 109-208)
T1 sequence: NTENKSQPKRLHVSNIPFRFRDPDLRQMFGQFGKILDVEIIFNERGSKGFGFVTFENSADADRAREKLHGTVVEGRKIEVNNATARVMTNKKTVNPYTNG

B1: CUUAAGG (DNA:RNA)
RNA: GGGAGACCGGAAUUCAGAUUGUCCCUUAAGGUUAAAUCCCGUCGUAGCCACCA
DNA 1: CAATCTGAATTCCGGTCTCCC
DNA 2: TGGTGGCTACGACGGGATT
B2: CUAUUCC (DNA:RNA)
RNA: B1 RNA with U27A, A28U, A29U, G30C, G31C
DNA 1: CAATCTGAATTCCGGTCTCCC
DNA 2: TGGTGGCTACGACGGGATT
B3: GGGGACA (DNA:RNA)
RNA: B1 RNA with C25G, U26G, U27G, A28G, G30C, G31A
DNA 1: CAATCTGAATTCCGGTCTCCC
DNA 2: TGGTGGCTACGACGGGATT
B4: GCCCGUA (DNA:RNA)
RNA: GGGAGACCGGAAUUCAGAUUGUCCGCCCGUAUUAAAUCCCGUCGUAGCCACCA
DNA 1: CAATCTGAATTCCGGTCTCCC
DNA 2: TGGTGGCTACGACGGGATT
B5: ACCGCGU (DNA:RNA)
RNA: B4 RNA with G25A, C28G, G29C, U30G, A31U
DNA 1: CAATCTGAATTCCGGTCTCCC
DNA 2: TGGTGGCTACGACGGGATT
B6: CACAGUU (DNA:RNA)
RNA: B4 RNA with G25C, C26A, C28A, A31U
DNA 1: CAATCTGAATTCCGGTCTCCC
DNA 2: TGGTGGCTACGACGGGATT
B7: UAGGCGA (DNA:RNA)
RNA: B1 RNA with C25U, U26A, U27G, A28G, A29C, G31A
DNA 1: CAATCTGAATTCCGGTCTCCC
DNA 2: TGGTGGCTACGACGGGATT
B8: UGAAUAC (DNA:RNA)
RNA: B1 RNA with C25U, U26G, U27A, A29U, G30A, G31C
DNA 1: CAATCTGAATTCCGGTCTCCC
DNA 2: TGGTGGCTACGACGGGATT
B9: AACGUGG (DNA:RNA)
RNA: B1 RNA with C25A, U26A, U27C, A28G, A29U
DNA 1: CAATCTGAATTCCGGTCTCCC
DNA 2: TGGTGGCTACGACGGGATT
B10: ACCGAAU (DNA:RNA)
RNA: B4 RNA with G25A, C28G, G29A, U30A, A31U
DNA 1: CAATCTGAATTCCGGTCTCCC
DNA 2: TGGTGGCTACGACGGGATT
B11: UCGUGAC (DNA:RNA)
RNA: B4 RNA with G25U, C27G, C28U, U30A, A31C
DNA 1: CAATCTGAATTCCGGTCTCCC
DNA 2: TGGTGGCTACGACGGGATT
B12: AGCUGCG (DNA:RNA)
RNA: B4 RNA with G25A, C26G, C28U, U30C, A31G
DNA 1: CAATCTGAATTCCGGTCTCCC
DNA 2: TGGTGGCTACGACGGGATT
B13: UCUACAA (DNA:RNA)
RNA: B1 RNA with C25U, U26C, A29C, G30A, G31A
DNA 1: CAATCTGAATTCCGGTCTCCC
DNA 2: TGGTGGCTACGACGGGATT
B14: CCGAGUG (DNA:RNA)
RNA: B1 RNA with U26C, U27G, A29G, G30U
DNA 1: CAATCTGAATTCCGGTCTCCC
DNA 2: TGGTGGCTACGACGGGATT
B15: CUGUGCU (DNA:RNA)
RNA: B1 RNA with U27G, A28U, A29G, G30C, G31U
DNA 1: CAATCTGAATTCCGGTCTCCC
DNA 2: TGGTGGCTACGACGGGATT
B16: AGAUCAA (DNA:RNA)
RNA: B4 RNA with G25A, C26G, C27A, C28U, G29C, U30A
DNA 1: CAATCTGAATTCCGGTCTCCC
DNA 2: TGGTGGCTACGACGGGATT
B17: AGUGCCG (DNA:RNA)
RNA: B1 RNA with C25A, U26G, A28G, A29C, G30C
DNA 1: CAATCTGAATTCCGGTCTCCC
DNA 2: TGGTGGCTACGACGGGATT
B18: GCCACUA (DNA:RNA)
RNA: B4 RNA with C28A, G29C
DNA 1: CAATCTGAATTCCGGTCTCCC
DNA 2: TGGTGGCTACGACGGGATT
B19: GCCGAGC (DNA:RNA)
RNA: B4 RNA with C28G, G29A, U30G, A31C
DNA 1: CAATCTGAATTCCGGTCTCCC
DNA 2: TGGTGGCTACGACGGGATT
B20: ACGUCUU (DNA:RNA)
RNA: B4 RNA with G25A, C27G, C28U, G29C, A31U
DNA 1: CAATCTGAATTCCGGTCTCCC
DNA 2: TGGTGGCTACGACGGGATT
B21: GUCCUGG (DNA:RNA)
RNA: B1 RNA with C25G, U27C, A28C, A29U
DNA 1: CAATCTGAATTCCGGTCTCCC
DNA 2: TGGTGGCTACGACGGGATT
B22: GGAAGUG (DNA:RNA)
RNA: B4 RNA with C26G, C27A, C28A, A31G
DNA 1: CAATCTGAATTCCGGTCTCCC
DNA 2: TGGTGGCTACGACGGGATT
B23: UAGAUUU (DNA:RNA)
RNA: B1 RNA with C25U, U26A, U27G, A29U, G30U, G31U
DNA 1: CAATCTGAATTCCGGTCTCCC
DNA 2: TGGTGGCTACGACGGGATT
B24: UUGGAUC (DNA:RNA)
RNA: B1 RNA with C25U, U27G, A28G, G30U, G31C
DNA 1: CAATCTGAATTCCGGTCTCCC
DNA 2: TGGTGGCTACGACGGGATT
B25: CUUGGGG (DNA:RNA)
RNA: B1 RNA with A28G, A29G
DNA 1: CAATCTGAATTCCGGTCTCCC
DNA 2: TGGTGGCTACGACGGGATT
B26: CCCCAAG (DNA:RNA)
RNA: B1 RNA with U26C, U27C, A28C, G30A
DNA 1: CAATCTGAATTCCGGTCTCCC
DNA 2: TGGTGGCTACGACGGGATT
B27: UAUCCAG (DNA:RNA)
RNA: B1 RNA with C25U, U26A, A28C, A29C, G30A
DNA 1: CAATCTGAATTCCGGTCTCCC
DNA 2: TGGTGGCTACGACGGGATT
B28: CCGAGGA (DNA:RNA)
RNA: B1 RNA with U26C, U27G, A29G, G31A
DNA 1: CAATCTGAATTCCGGTCTCCC
DNA 2: TGGTGGCTACGACGGGATT
B29: UUGCAAG (DNA:RNA)
RNA: B1 RNA with C25U, U27G, A28C, G30A
DNA 1: CAATCTGAATTCCGGTCTCCC
DNA 2: TGGTGGCTACGACGGGATT
B30: AGGACCU (DNA:RNA)
RNA: B1 RNA with C25A, U26G, U27G, A29C, G30C, G31U
DNA 1: CAATCTGAATTCCGGTCTCCC
DNA 2: TGGTGGCTACGACGGGATT
B31: CAGCCGA (DNA:RNA)
RNA: B1 RNA with U26A, U27G, A28C, A29C, G31A
DNA 1: CAATCTGAATTCCGGTCTCCC
DNA 2: TGGTGGCTACGACGGGATT

Target: T1, RBFOX1 RRM
Experiment: EMSA; HiTS-Eq, 1 nM pool, 10 min; buffer printed only for the single-RNA assays: 10 mM Tris pH 7.5, 150 mM NaCl, 3.4 mM EDTA, 0.001% NP-40, 30 C
Settings: tags: His6 N-terminal (pET28a); label: 5' 32P
In short: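 These values rest on relative association constants, computed from read-count changes of each RNA species versus the control reaction and normalised to the cognate motif. Reads came from free RNA recovered by 8% native PAGE after purified RbFox RRM (wild type or mutant) at increasing concentrations was equilibrated for 10 min in 50 µL with 1 nM of a 5′-radiolabelled pool with 7 randomized nucleotides and DNA-annealed flanks.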

Row | Binder | binding signal
1 | B1 | 0.00715 KA relative to UGCAUGU
2 | B2 | 0.00135 KA relative to UGCAUGU
3 | B3 | 0.0245 KA relative to UGCAUGU
4 | B4 | 0.00913 KA relative to UGCAUGU
5 | B5 | 0.00429 KA relative to UGCAUGU
6 | B6 | 0.00341 KA relative to UGCAUGU
7 | B7 | 0.0114 KA relative to UGCAUGU
8 | B8 | 0.0117 KA relative to UGCAUGU
9 | B9 | 0.00913 KA relative to UGCAUGU
10 | B10 | 0.00648 KA relative to UGCAUGU
11 | B11 | 0.00208 KA relative to UGCAUGU
12 | B12 | 0.0222 KA relative to UGCAUGU
13 | B13 | 0.00199 KA relative to UGCAUGU
14 | B14 | 0.0124 KA relative to UGCAUGU
15 | B15 | 0.0184 KA relative to UGCAUGU
16 | B16 | 0.00294 KA relative to UGCAUGU

Row | Binder | binding signal
17 | B17 | 0.0117 KA relative to UGCAUGU
18 | B18 | 0.00609 KA relative to UGCAUGU
19 | B19 | 0.0163 KA relative to UGCAUGU
20 | B20 | 0.00728 KA relative to UGCAUGU
21 | B21 | 0.0183 KA relative to UGCAUGU
22 | B22 | 0.0211 KA relative to UGCAUGU
23 | B23 | 0.0106 KA relative to UGCAUGU
24 | B24 | 0.0188 KA relative to UGCAUGU
25 | B25 | 0.00418 KA relative to UGCAUGU
26 | B26 | 0.0108 KA relative to UGCAUGU
27 | B27 | 0.0039 KA relative to UGCAUGU
28 | B28 | 0.00948 KA relative to UGCAUGU
29 | B29 | 0.0333 KA relative to UGCAUGU
30 | B30 | 0.00932 KA relative to UGCAUGU
31 | B31 | 0.00829 KA relative to UGCAUGU
